# The campaign covered roughly 150,000 compounds. About 540 (0.36%) showed an effect of 50% or more. The list shows a part of the results.
# Tested on: Plasmodium falciparum
# Assay: Primary screen in NF54 nanoGlo assay, in single point, at 2uM, 72h; a lower Z score goes with more inhibition
# Assay type: functional, Erythrocyte
# Settings: timepoint 72 hour
Structure (SMILES),% Inhibition,Z score
Cn1c(-c2ccc(Cl)cc2)c(-c2c(O)n(C)c(=O)n(C)c2=O)n(C)c1=O,3%,-0.45
CC1(C)COC2(CCN(C(=O)C3CC3C3CCC3)CC2)OC1 (centres undefined),1%,-0.07
CCCCn1nc(C)c(C(=O)N[C@@H](C)c2ccc3c(c2)OCCCO3)c1Cl,-8%,1.37
CC1CC1C(=O)N1CCOC(CS(=O)(=O)F)C1 (centres undefined),-12%,1.9
CCCS(=O)(=O)CC(=O)Nc1ccc(C#N)c(C(F)(F)F)c1,-3%,0.53
c1ccc2c(CCNCC3CCCCC3)c[nH]c2c1,-14%,1.99
O=C(CN1CCOCC1)c1ccc(C2CCCC2)cc1,3%,-0.43
Cc1nc(CN2CC3CCCC3C2)sc1C (centres undefined),-18%,2.59
CCc1nn(CC(=O)N2CCC3(CC2)OCCO3)c(=O)c2cc3ccccc3n12,-10%,1.23
O=c1[nH]ccc2ccc(-c3cccc4c3CCNC4)cc12,0%,-0.09
COc1ccc(CN2C[C@@H]3C[C@H](C2)c2ccc(-c4cncnc4)c(=O)n2C3)cc1,-4%,0.67
C=CCCC(CN1C[C@H]2CC=CC[C@H]2C1)Oc1ncc(F)cn1 (some centres undefined),75%,-13.95
Cn1nccc1C1=CC2CCC(C1)N2CC(=O)Nc1nccs1 (centres undefined),-13%,1.68
CN1CCN(C(=O)COc2ccc3nncn3n2)C[C@H]1c1ccccc1,-5%,0.58
N#Cc1c(O)nc(O)c2c1CCN(Cc1ccccc1)C2,0%,
Cc1cc(CC(=O)N2CCCN(Cc3ccc(Cl)cc3)CC2)n[nH]1,-9%,0.9
Cc1ccc(OC(=O)NC2CCC(CC3CCC(NC(=O)Oc4ccc(C)c(C)c4)CC3)CC2)cc1C (centres undefined),-14%,1.45
CCN(CC)c1ccc2nc(NC(=O)c3ccn(C4CCOCC4)n3)sc2c1,-2%,0.23
COc1ccc(CN(C)C)c(OC(=O)N(C)C)c1,2%,-0.2
O=C1c2ccccc2CCC12CCNCC2,-12%,1.53
CN(Cc1cccnc1)C1CN(C(=O)Cc2cccnc2)C1,-6%,1.2
CCc1ccc(-c2n[nH]c3c2C2(C(=O)O)CC(N3)c3cccc(OC)c3O2)cc1 (centres undefined),-1%,0.17
OCC1(NCCc2ccccc2)CCCC1,-9%,1.16
O=c1oc2ccccc2n1Cc1cn(CCC2=CCCCC2)nn1,-17%,1.77
CC(C)(C)n1cnc(C(=O)N2C3CCC2C(CO)C3)n1 (centres undefined),2%,-0.33
